From the supplement of paper PMC4723716
± gives the uncertainty stated by the source. In all, about 9,900 compounds were measured (“viability index relative to DMSO control”: median about 1, lowest 2% from about 0.85 on). This is one part of the list.

tested on: Plasmodium falciparum NF54 stage V gametocytes; test: viability index relative to DMSO control (fraction); higher = less gametocyte killing; conditions: 2.5 µM, library set: Broad Institute DOS, incubation time: 72 h
Outline: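 Stage V gametocytes of P. falciparum NF54 were held in serum-free screening medium at 0.75% gametocytemia and 1.25% hematocrit, 10 µl per well of a 1,536-well plate, and exposed to compound at 2.5 µM for 72 hr at 37°C under low oxygen. A 3 µl mix of 2.5 µM MitoTracker Red CMXRos with 0.13% saponin was then added for one to two hours, after which one field per well was imaged and red particles of 20–70 µm2 were counted. The viability index equals this count divided by the plate mean from wells given solvent alone.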

SMILES	viability index
O=C(C[C@H]1C[C@H]2c3cc(NC(=O)c4ccc5c(c4)OCO5)ccc3O[C@H]2[C@H](CO)O1)NCc1ccc(Oc2ccccc2)cc1	1.03 ± 0.11
CCCC#Cc1ccc([C@@H]2[C@H](CO)N3C(=O)CN(S(=O)(=O)c4ccccc4C)C[C@@H]23)cc1	0.965 ± 0.13
N#C[C@H]1[C@@H](c2ccccc2-c2ccccc2)[C@H](CO)N1C(=O)Cc1ccncc1	0.995 ± 0.044
COc1cccc(-c2ccc3c(c2)[C@@H]2[C@@H](CCN2S(=O)(=O)c2ccccc2F)[C@@H](CO)N3)c1	0.964 ± 0.17
O=C(C1CCC1)N1CC(=O)N2[C@H](CO)[C@H](c3ccc(Br)cc3)[C@@H]2C1	1.1 ± 0.057
CC(C)NC(=O)N1CC2(C1)[C@H](c1ccccc1)[C@H](CO)N2C(=O)C1CCOCC1	1.12 ± 0.02
CS(=O)(=O)N1CC(=O)N2[C@@H](CO)[C@H](c3ccc(Br)cc3)[C@@H]2C1	1.05 ± 0.057
C/C=C/c1ccc([C@@H]2[C@H](CO)N[C@H]2CN(CC)C(=O)CN2CCOCC2)cc1	0.993 ± 0.061
COc1ccc2c3c([C@H](CO)N(C[C@]33CN(C3)C(=O)Nc3ccc(F)cc3)C(=O)c3ccc(F)cc3)n(C)c2c1	0.923 ± 0.079
C[C@H](CO)N1C[C@H](C)[C@@H](CN(C)C(=O)Nc2ccc(C(F)(F)F)cc2)Oc2ccc(NS(=O)(=O)c3ccc(Cl)cc3)cc2CC1=O	0.917 ± 0.088
CCS(=O)(=O)N1C[C@@]2(C1)CN([C@@H](CO)c1[nH]c3cc(OC)ccc3c21)S(=O)(=O)c1cn(C)cn1	0.917 ± 0.098
COc1ccccc1-c1ccccc1[C@H]1[C@@H](C#N)N(C(=O)C2CCOCC2)[C@@H]1CO	1 ± 0.12
CCS(=O)(=O)N1[C@H](CO)[C@@H](c2ccc(C#Cc3ccccc3F)cc2)[C@@H]1C#N	1.09 ± 0.081
C[C@@H]1CN([C@@H](C)CO)C(=O)c2cc(C3=CCCC3)cnc2O[C@@H]1CN(C)C(=O)Nc1ccc(C(F)(F)F)cc1	1.072 ± 0.0069
CCCN1[C@H](CO)[C@H](c2ccc(C3=CCCC3)cc2)[C@H]1CNC(=O)NC(C)C	1.12 ± 0.033
COc1ccc([C@@H]2C/C=C/C[C@H](C)Oc3ccccc3C(=O)N(C)[C@@H](Cc3ccccc3)C(=O)N2)c(OC)c1.COc1ccc([C@@H]2C/C=C\C[C@H](C)Oc3ccccc3C(=O)N(C)[C@@H](Cc3ccccc3)C(=O)N2)c(OC)c1	0.989 ± 0.071
O=C(C[C@@H]1C=C[C@H](NC(=O)Nc2cccc(F)c2)[C@@H](CO)O1)NCC1CCCCC1	0.994 ± 0.033
O=C(C[C@H]1CC[C@H]2[C@@H](COC[C@H](O)CN2Cc2ccc(F)cc2)O1)NCCc1ccccc1	0.995 ± 0.027
COc1ccc([C@H]2C/C=C\C[C@H](c3ccc4c(c3)OCO4)NC(=O)[C@H](c3ccccc3)CC(=O)N2)c(OC)c1	1.037 ± 0.003
N#C[C@H]1[C@@H](c2ccc(C3=CCCC3)cc2)[C@H](CO)N1C(=O)c1ccccn1	1.09 ± 0.029
CCCNC(=O)N(C)C[C@H]1Oc2ncc(C#CC3CCCCC3)cc2C(=O)N([C@@H](C)CO)C[C@@H]1C	0.929 ± 0.067
CO[C@@H](CN(C)S(=O)(=O)c1ccc(C)cc1)[C@@H](C)CN(C(=O)Nc1ccccc1F)[C@@H](C)CO	0.99 ± 0.03
C[C@@H]1CN([C@@H](C)CO)C(=O)c2ccccc2-c2ccccc2CO[C@@H]1CN(C)S(=O)(=O)c1cccs1	0.989 ± 0.056

SMILES	viability index
O=C(C1CCCCC1)N1[C@@H](CO)[C@@H]2c3ccccc3N(S(=O)(=O)c3ccccc3)C[C@@H]21	1 ± 0.022
O=C(C1CCC1)N1C[C@@H]2N[C@H](C1)[C@@H]2c1ccc(-c2cncnc2)cc1	1.115 ± 0.0039
COc1ccccc1S(=O)(=O)N(C)C[C@H]1OCc2ccccc2-c2ccccc2C(=O)N([C@H](C)CO)C[C@H]1C	1.07 ± 0.12
CC1C=NC(S(=O)(=O)N2CC[C@H]3[C@@H](CO)N(C)c4ccc(C#Cc5cccnc5)cc4[C@H]32)=N1 (stereo not given in full)	1.07 ± 0.03
CC(C)CC#Cc1ccc([C@@H]2[C@H](CO)N3C(=O)CN(C(=O)c4cccc(F)c4)C[C@@H]23)cc1	1.11 ± 0.013
O=C(C1CCCC1)N1CC2(C1)[C@H](c1ccccc1)[C@H](CO)N2Cc1ccc(Cl)cc1	1.125 ± 0.0037
COCC#Cc1ccc([C@H]2[C@H]3CN(C(=O)c4ccncc4)CC(=O)N3[C@H]2CO)cc1	1.06 ± 0.13
COc1ccc(cc1)S(=O)(=O)N1C[C@@]2(C1)CN([C@H](CO)c1c2c2ccc(OC)cc2n1C)C(=O)CN(C)C	0.841 ± 0.028
O=C(C1CCOCC1)N1C[C@@H]2[C@H](c3ccccc31)[C@@H](CO)N2C(=O)Nc1ccccc1F	0.988 ± 0.055
COc1ccc(NC(=O)N2CCCCN3[C@@H](CO)[C@@H](c4ccc(-c5ccccc5F)cc4)[C@@H]3C2)cc1	0.993 ± 0.011
CCCN(C)C[C@H]1OCc2ccccc2-c2ccccc2C(=O)N([C@@H](C)CO)C[C@H]1C	0.89 ± 0.011
O=C(C[C@H]1C[C@H]2c3cc(NC(=O)Nc4ccccc4F)ccc3O[C@H]2[C@H](CO)O1)NCc1ccccn1	0.97 ± 0.075
C[C@@H](NC(=O)C[C@H]1C=C[C@@H](NS(=O)(=O)c2cccc(F)c2)[C@@H](CO)O1)c1ccccc1	1.05 ± 0.12
O=C(C1CCOCC1)N1[C@H](CO)[C@@H](c2ccccc2)C12CN(Cc1cccc(Cl)c1)C2	1.1 ± 0.062
COc1ccc(NC(=O)N(C)C[C@@H]2Oc3ccc(NC(=O)Nc4cccc5ccccc45)cc3CC(=O)N([C@@H](C)CO)C[C@@H]2C)cc1	0.9446 ± 0.0047
O=C(C[C@H]1CC[C@@H]2[C@H](COC[C@H](O)CN2C(=O)Nc2ccccc2)O1)NCc1ccccc1F	1.11 ± 0.041
COc1ccc2c3c([nH]c2c1)[C@@H](CO)NC[C@]31CCN(CC1)C(=O)c1ccccc1	0.973 ± 0.03
COc1cccc(S(=O)(=O)Nc2ccc3c(c2)C(=O)N(C)C[C@H](OC)[C@H](C)CN(Cc2ccccc2F)[C@H](C)CO3)c1	0.974 ± 0.1
CC(C)NC(=O)N1[C@H](CNC(=O)CN(C)C)[C@@H](c2ccccc2)[C@@H]1CO	1.02 ± 0.1
COc1ccc2c3c([nH]c2c1)[C@@H](CO)N(C[C@]31CCN(Cc2nccs2)CC1)C(=O)C1CCOCC1	0.915 ± 0.072
Cc1ccccc1S(=O)(=O)N1CC[C@@H]2[C@@H](CO)N(C)c3ccc(-c4cccc(F)c4)cc3[C@@H]21	0.94 ± 0.027
C[C@@H]1CN([C@@H](C)CO)C(=O)c2ccccc2-c2ccccc2CO[C@@H]1CN(C)Cc1cccnc1	1.049 ± 0.005
